Results as given in PubChem BioAssay AID720709 (National Center for Advancing Translational Sciences (NCATS), 2013).
About 520 (0.14%) of roughly 360,000 compounds were called active. Inconclusive results, whose numbers are uncertain, are shown with a selection of clear calls. Calls follow the shape of the dose curve; as a rule, active = well fitted inhibition curve with a large enough effect; inconclusive = small, poorly fitted or top-dose-only effect; inactive = no such curve, though single readings can be large or run the other way. No potency is given beside an inconclusive call; the fits are too rough.

Biological target: Rap guanine nucleotide exchange factor 3 (Homo sapiens) (UniProt O95398)
Assay: qHTS for Antagonist of cAMP-regulated guanine nucleotide exchange factor 3 (EPAC1): primary screen; also: nearly all actives have a fitted effect of over 50% in size;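 as to activity change, negative = inhibition: plate controls were vehicle for no effect and positive control for full effect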
Settings: EPAC1 GEF assay, Rap1b-BODIPY-GDP exchange fluorescence; activity change, negative = inhibition: at 115 µM (top of the series)
Potency is read from the fitted curve at half-maximal effect; tags tell the direction and shape of the fitted curve.

Sequence of UniProt O95398 (O95398 whole entry, looked up): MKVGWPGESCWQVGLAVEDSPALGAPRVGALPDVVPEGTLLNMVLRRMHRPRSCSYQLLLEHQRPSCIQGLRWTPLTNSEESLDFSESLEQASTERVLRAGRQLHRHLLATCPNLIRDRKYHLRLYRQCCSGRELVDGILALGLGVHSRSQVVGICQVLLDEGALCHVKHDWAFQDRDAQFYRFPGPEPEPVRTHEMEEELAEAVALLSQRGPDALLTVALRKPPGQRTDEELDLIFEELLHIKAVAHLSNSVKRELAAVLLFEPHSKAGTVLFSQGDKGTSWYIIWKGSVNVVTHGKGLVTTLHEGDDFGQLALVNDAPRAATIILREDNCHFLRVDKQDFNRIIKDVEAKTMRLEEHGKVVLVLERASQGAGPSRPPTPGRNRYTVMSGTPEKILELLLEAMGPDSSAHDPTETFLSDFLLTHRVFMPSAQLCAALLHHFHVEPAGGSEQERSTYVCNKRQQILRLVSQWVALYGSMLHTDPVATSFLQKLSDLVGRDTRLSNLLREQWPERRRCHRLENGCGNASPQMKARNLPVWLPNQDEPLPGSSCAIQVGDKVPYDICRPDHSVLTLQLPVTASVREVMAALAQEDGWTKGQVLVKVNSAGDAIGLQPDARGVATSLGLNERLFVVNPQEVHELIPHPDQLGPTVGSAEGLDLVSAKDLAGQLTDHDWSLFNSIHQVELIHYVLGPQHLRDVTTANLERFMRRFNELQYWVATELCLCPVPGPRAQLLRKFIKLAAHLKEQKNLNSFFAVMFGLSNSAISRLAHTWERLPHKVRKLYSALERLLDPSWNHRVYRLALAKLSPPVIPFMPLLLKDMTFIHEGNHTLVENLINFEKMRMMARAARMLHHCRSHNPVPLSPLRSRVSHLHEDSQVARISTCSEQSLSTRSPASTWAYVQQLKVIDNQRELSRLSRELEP

Row | Compound | Potency | activity change, negative = inhibition
1 | COc1ccccc1N(C)S(=O)(=O)c1ccc(C(=O)NC2CCCCC2)cc1 | inconclusive [inhibitor, partial curve, poor fit] | –
2 | CC(CNC(=O)COc1ccccc1)OC(=O)Nc1ccc(Cl)c(Cl)c1 (stereo not drawn) | inconclusive [inhibitor, partial curve, poor fit] | –
3 | CC1(C)CC(=O)C2=C(C1)N1C(=C(C#N)C2c2ccc(Cl)cc2)N=C(N)c2ccccc21 (stereo not drawn) | inconclusive [inhibitor, partial curve] | –
4 | CC(C)(C)OC(=O)N1CCc2onc(-c3ccc(-n4cc(C5=CCCCC5)nn4)cc3)c2C1=O | – | inactive: 2.06%
5 | C(=N\N(c1ccccc1)c1ccccc1)/c1ccc2c(c1)OCO2 | – | inactive: 2.97%
6 | Cc1cc(N2C(=O)C(O)=C(C(=O)c3cc4ccccc4o3)C2c2cccs2)no1 (stereo not drawn) | inconclusive [inhibitor, partial curve] | –
7 | CCC(=O)N1CCC(C)(C(=O)NCc2cccc(OC)c2)C1 (stereo not drawn) | – | inactive: 4.28%
8 | COc1ccc(S(=O)(=O)/N=C2\C=C(NS(=O)(=O)c3ccccc3)C(=O)c3ccccc32)cc1 | inconclusive [inhibitor, partial curve] | –
9 | Cc1ccc(-c2csc3nc(-c4ccncc4)[nH]c(=O)c23)cc1 | inconclusive [inhibitor, full curve, poor fit] | –
10 | CC(=O)Nc1cccc(NC(=S)Nc2ccc(F)c(Cl)c2)c1 | – | inconclusive: -30.3% [inhibitor]
11 | CCOC(=O)C=C(OC(=O)c1ccc(OC)cc1)c1ccccc1 | – | inactive: -22.1%
12 | c1cc(CSc2nnc(-c3ccc4c(c3)OCO4)o2)ccn1 | – | inactive: -17.2%
13 | Cc1c(Br)c(O)c(Br)c2sc(=O)oc12 | inconclusive [inhibitor, full curve, poor fit] | –
14 | O=c1[nH]c2cc(Cl)ccc2n(CCNc2ncc(C(F)(F)F)cc2Cl)c1=O | – | inconclusive: -19.6% [inhibitor]
15 | COc1ccc(C(C)(O)c2nc(-c3ccccc3OC)cs2)cc1 (stereo not drawn) | – | inactive: 0.169%
16 | Cn1c2ccccc2c2cc(/C=N/NC(=O)c3cc(O)cc(O)c3)ccc21 | inconclusive [inhibitor, single point] | –
17 | CC1(C)Cc2ccccc2C2=NNC(=O)C2=N1 | – | inactive: 2.02%
18 | CCOc1ccc(CN(C)C(=O)Cc2c[nH]c3ccccc23)cc1 | inconclusive [inhibitor, single point] | –
19 | Cc1ccc(NC(=O)c2csc3c2CCCC3)cc1 | inconclusive [inhibitor, single point] | –
20 | Cc1ccccc1OCCNC(=O)/C=C/c1ccc([N+](=O)[O-])cc1 | inconclusive [inhibitor, full curve] | –
21 | NS(=O)(=O)c1ccc(CCNC(=O)CN2CCCCC2)cc1 | inconclusive [inhibitor, partial curve, poor fit] | –
22 | O=C(N/N=C/c1cc(Cl)c(O)c(Cl)c1)c1cc2c(ccc3ccccc32)o1 | inconclusive [inhibitor, single point] | –

Row | Compound | Potency | activity change, negative = inhibition
23 | COc1cccc(-c2cc(C(=O)N3CCN(S(=O)(=O)c4ccccc4)CC3)[nH]n2)c1 | inconclusive [inhibitor, partial curve, poor fit] | –
24 | CC(C)C[C@H]1CN([C@@H](Cc2ccc(O)cc2)CN2CCC[C@@H]2CN2C(=O)C(=O)NC[C@@H]2Cc2ccccc2)C(=O)C(=O)N1CC1CCCCC1 | inconclusive [inhibitor, partial curve, poor fit] | –
25 | Cc1cc(C)nc(SCC(=O)c2ccc(O)c(O)c2)n1 | – | inactive: -8.5%
26 | COc1ccc(/C=C2\Sc3ccc(C(=O)N4CCN(Cc5ccccc5)CC4)cc3N(C)C2=O)cc1OC | inconclusive [inhibitor, full curve] | –
27 | CC(C)Nc1nc(NC(N)=S)nc(NC(C)C)n1 | inconclusive [inhibitor, single point] | –
28 | Cc1ccc(S(=O)(=O)/N=C2\C=C(NS(=O)(=O)c3ccccc3)C(=O)c3ccccc32)cc1 | inconclusive [inhibitor, single point] | –
29 | Cc1cc(C)nc(N/N=C/c2ccccc2OCc2ccccc2)n1 | inconclusive [inhibitor, single point] | –
30 | CCOC(=O)/C(C#N)=C\c1ccc(CC)s1 | – | inactive: 4.32%
31 | Cc1ccc(Cl)cc1N1CCN(C(=O)C2CCC(=O)N2C(C)C)CC1 (stereo not drawn) | – | inactive: 4.55%
32 | CCOC(=O)CSc1nc(-c2ccccc2)ns1 | inconclusive [inhibitor, partial curve] | –
33 | CC(=O)c1c(C)[nH]c2ccccc2c1=O | inconclusive [inhibitor, full curve, poor fit] | –
34 | CC1(C)CC(=O)C(C(=S)Nc2ccccc2)=C(NC2CC(C)(C)NC(C)(C)C2)C1 | – | inconclusive: -32.2% [inhibitor]
35 | O=S(=O)(/N=C/c1c(O)ccc2ccccc12)c1ccccc1 | – | inactive: -12.4%
36 | CC1=NN(Cc2ccccc2)C(=O)C1C(c1ccc(Cl)cc1)C(C#N)C#N (stereo not drawn) | inconclusive [inhibitor, partial curve] | –
37 | CC(C)c1ccc(/C=C2\SC(=O)N(CC(=O)NC3C=CS(=O)(=O)C3)C2=O)cc1 (stereo not drawn) | – | inactive: -19.2%
38 | CCCN1CCN(CCCNC(=O)Cn2ncc3c4ccccc4n(C)c3c2=O)CC1 | inconclusive [inhibitor, single point] | –
39 | O=C(O)c1ccccc1/C=N/Nc1ccc(S(=O)(=O)N2CCOCC2)cc1[N+](=O)[O-] | – | inactive: -0.606%
40 | O=C(Nc1ccc(F)cc1F)C1CCN(S(=O)(=O)c2cccnc2)CC1 | inconclusive [inhibitor, single point] | –
41 | CC(C)(C)c1ccc(OCCC(=O)OCC(=O)NC(=O)NC2CCCC2)cc1 | inconclusive [inhibitor, full curve] | –
42 | O=C(O)c1ccccc1NS(=O)(=O)c1cccc(C(F)(F)F)c1 | – | inactive: 4.5%
43 | O=C(O)c1c(Cl)c(Cl)c(Cl)c(Cl)c1C(=O)N1CCOCC1 | inconclusive [inhibitor, full curve, poor fit] | –
